Results on 55 compounds are retold here after article PMC4336329 (PLoS ONE, 2015).

Each structure is given as a SMILES string. Out of some 310,000 compounds screened, about 2,200 (0.71%) showed an effect of 50% or more. Effects have a minus sign here. The list shows a part of the results.

Chain of human ether-à-go-go-related gene (hERG) potassium channel (Q12809 whole entry, looked up): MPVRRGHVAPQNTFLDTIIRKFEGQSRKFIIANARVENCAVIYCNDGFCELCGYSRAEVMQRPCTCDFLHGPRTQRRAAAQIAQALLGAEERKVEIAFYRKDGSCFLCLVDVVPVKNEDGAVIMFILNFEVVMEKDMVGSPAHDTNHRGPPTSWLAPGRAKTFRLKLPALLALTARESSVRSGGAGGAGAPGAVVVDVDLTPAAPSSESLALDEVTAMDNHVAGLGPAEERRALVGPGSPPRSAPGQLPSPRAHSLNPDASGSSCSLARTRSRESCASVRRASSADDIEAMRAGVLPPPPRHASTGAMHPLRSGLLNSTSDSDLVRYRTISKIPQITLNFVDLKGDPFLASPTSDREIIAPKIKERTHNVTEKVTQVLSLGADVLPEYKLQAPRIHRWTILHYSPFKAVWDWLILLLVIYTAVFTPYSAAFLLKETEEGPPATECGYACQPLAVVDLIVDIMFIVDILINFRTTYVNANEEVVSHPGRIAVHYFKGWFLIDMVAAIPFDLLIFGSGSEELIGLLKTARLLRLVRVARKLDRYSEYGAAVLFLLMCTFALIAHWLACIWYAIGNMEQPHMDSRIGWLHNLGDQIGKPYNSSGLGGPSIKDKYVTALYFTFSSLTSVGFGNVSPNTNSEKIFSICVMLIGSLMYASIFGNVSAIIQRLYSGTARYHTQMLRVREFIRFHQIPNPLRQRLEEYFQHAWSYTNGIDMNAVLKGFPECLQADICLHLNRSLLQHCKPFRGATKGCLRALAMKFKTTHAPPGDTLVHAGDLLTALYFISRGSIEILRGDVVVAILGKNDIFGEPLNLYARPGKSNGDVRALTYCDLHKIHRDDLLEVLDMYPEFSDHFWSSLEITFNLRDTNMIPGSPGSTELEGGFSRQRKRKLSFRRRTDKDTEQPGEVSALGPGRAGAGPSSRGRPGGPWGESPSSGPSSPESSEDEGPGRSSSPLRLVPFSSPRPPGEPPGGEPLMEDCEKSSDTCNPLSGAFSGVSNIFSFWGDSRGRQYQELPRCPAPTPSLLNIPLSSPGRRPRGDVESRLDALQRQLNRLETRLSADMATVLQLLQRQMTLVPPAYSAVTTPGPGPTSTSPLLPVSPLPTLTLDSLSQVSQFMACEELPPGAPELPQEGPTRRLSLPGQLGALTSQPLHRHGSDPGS

This experiment has as its target human ether-à-go-go-related gene (hERG) potassium channel (human, UniProt Q12809). The experiment can be described thus: primary screen, population patch clamp on CHO cells stably expressing hERG.
As to `CCNC(=O)NC(=O)C(C)OC(=O)c1oc2ccc(OCC)cc2c1C` (stereo not shown), the “hERG current change (%, negative = inhibition) at 1uM” value came to 2.17%.

As to `CCC(C)(C)NC(=O)CN(C(=O)CCC(=O)Nc1nccs1)c1cccc(C)c1C`, the “hERG current change (%, negative = inhibition) at 1uM” value is 11.2%.

Take `N#CCC(=O)Nc1ccc(C(=O)OCC(=O)N(C2CCCCC2)C2CCCCC2)cc1`: the “hERG current change (%, negative = inhibition) at 1uM” value is reported as 12%.

With `Cc1cccc(C)c1NC(=O)C1CC(=O)N(C(C)C)C1` (stereo not shown), the “hERG current change (%, negative = inhibition) at 1uM” value is -6.09%.

For `COc1ccc(OC)c(S(=O)(=O)N2CCC(C(=O)Nc3cccc(C)c3)CC2)c1`, the “hERG current change (%, negative = inhibition) at 1uM” value is listed as -2.34%.

With `CC(C)(C)c1ccc(C(=O)CC(=O)c2cc(Cl)ccc2O)cc1`, the “hERG current change (%, negative = inhibition) at 1uM” value is -16.3%.

For `COc1ccc(S(=O)(=O)N(C)c2ccc(C(=O)NCc3ccccn3)cc2)cc1`, the “hERG current change (%, negative = inhibition) at 1uM” value is listed as 8.53%.

As for `Cc1ccc(NC(=O)CCn2ccc([N+](=O)[O-])n2)nc1`, the “hERG current change (%, negative = inhibition) at 1uM” value turned out to be 4.02%.

On to `Cn1c(SCC(=O)N2CCCC2)nc2ccccc2c1=O`, for which the “hERG current change (%, negative = inhibition) at 1uM” value is 0.705%.

As for `CSc1cccc(NS(=O)(=O)c2ccc(-c3coc(C)n3)cc2)c1`, the “hERG current change (%, negative = inhibition) at 1uM” value was 21.5%.

For the compound `Cc1ccc(C(=O)N2CCCC(C(=O)c3ccc(Cl)cc3C)C2)cn1` (stereo not shown), the “hERG current change (%, negative = inhibition) at 1uM” value was determined as 8.49%.

As to `Cc1cc2cc(CNS(=O)(=O)c3ccc4ccccc4c3)ccc2n1C`, the “hERG current change (%, negative = inhibition) at 1uM” value was 17.4%.

For `O=C(Nc1ccc(Cl)cc1)Nc1nccs1`, the “hERG current change (%, negative = inhibition) at 1uM” value was -15.9%.

`CCC(C)NS(=O)(=O)c1ccc(NC(C)=O)cc1` (stereo not shown): the “hERG current change (%, negative = inhibition) at 1uM” value is 11.2%.

As to `Cc1ccc(/C=C/C(=O)NCc2ccc3c(c2)OCO3)o1`, the “hERG current change (%, negative = inhibition) at 1uM” value is 6.44%.

Consider `CCN1C(=O)NC(c2ccc(Cl)cc2)C2=C1CCCC2=O` (stereo not shown), for which the “hERG current change (%, negative = inhibition) at 1uM” value came out at 10.5%.

`CC(=O)Nc1ccc(S(=O)(=O)NCCc2cc3c(C)ccc(C)c3[nH]c2=O)cc1`: the “hERG current change (%, negative = inhibition) at 1uM” value is reported as 6.89%.

For the compound `COc1ccc(NC(=O)c2cc3nc(-c4ccccc4)cc(-c4ccccc4)n3n2)c(OC)c1`, the “hERG current change (%, negative = inhibition) at 1uM” value is listed as 10.4%.

For `Cc1noc(C)c1COc1ccc(C(=O)NCCc2ccccn2)cc1`, the “hERG current change (%, negative = inhibition) at 1uM” value is on record as 21.1%.

As for `CCOC(=O)c1sc2nc(CSCC(=O)OCc3ccc(C(=O)OC)o3)[nH]c(=O)c2c1C`, the “hERG current change (%, negative = inhibition) at 1uM” value came out at 12.9%.

For `Cc1ccc(S(=O)(=O)N2CCN(C(=O)c3ccc(OCc4c(C)noc4C)cc3)CC2)cc1`, the “hERG current change (%, negative = inhibition) at 1uM” value is on record as -1.67%.

Turning to `NS(=O)(=O)c1cccc(NC(=O)COC(=O)Cn2cnc3ccccc32)c1`, the “hERG current change (%, negative = inhibition) at 1uM” value was 3.84%.

In the case of `COc1ccc(C(=O)Nc2ncc3c(n2)-c2ccccc2CC3)cc1`, the “hERG current change (%, negative = inhibition) at 1uM” value is given as 2.21%.

As to `O=C(c1ccc(NC(=S)Nc2ccc(Cl)c(Cl)c2)cc1)N1CCCC1`, the “hERG current change (%, negative = inhibition) at 1uM” value turned out to be 1.69%.

In the case of `O=C(NCCOc1ccccc1Cl)c1cccc2c1C(=O)c1ccc(Cl)cc1S2(=O)=O`, the “hERG current change (%, negative = inhibition) at 1uM” value is given as 6.99%.

In the case of `COc1ccc(-n2nc(C(C)=O)c(=O)[nH]c2=O)cc1`, the “hERG current change (%, negative = inhibition) at 1uM” value is recorded as 14.9%.

Take `CCCCN(C(=O)c1ccc(C)cc1)c1c(N)n(CCC)c(=O)[nH]c1=O`: the “hERG current change (%, negative = inhibition) at 1uM” value is 17.2%.

Consider `CC(=O)OC1CC[C@]2(C#N)[C@H]3CC[C@]4(C)[C@H](C5C=CC(=O)O5)CCC4(O)C3CCC2(O)C1` (stereo partly shown), for which the “hERG current change (%, negative = inhibition) at 1uM” value is on record as 12.9%.

In the case of `CCOC(=O)N/N=C\c1ccc(-c2cccc(C(F)(F)F)c2)o1`, the “hERG current change (%, negative = inhibition) at 1uM” value is given as 5.97%.

With `CSc1ccccc1NC(=O)CN(C)Cc1c(O)ccc2ccccc12`, the “hERG current change (%, negative = inhibition) at 1uM” value amounted to 15.3%.

As for `CCOP(=O)(OCC)C(Nc1cccc(C(F)(F)F)c1)c1ccc(C)cc1` (stereo not shown), the “hERG current change (%, negative = inhibition) at 1uM” value was found to be 13.1%.

Consider `COc1ccc(-c2nc3ccccc3o2)cc1OC`, for which the “hERG current change (%, negative = inhibition) at 1uM” value turned out to be 5.06%.

Regarding `O=C(O)c1[nH]c2ccccc2c1CC(=O)N1CCN(c2ccccc2)CC1`, the “hERG current change (%, negative = inhibition) at 1uM” value is given as 14.7%.

On to `COC(=O)c1cccc(CSc2nc(-c3ccccc3)c(C#N)c(=O)[nH]2)c1`, for which the “hERG current change (%, negative = inhibition) at 1uM” value was 12.7%.

As for `Cc1oc(-c2cc(Cl)cc(Cl)c2)cc1C(=O)NCCc1ccccc1`, the “hERG current change (%, negative = inhibition) at 1uM” value was determined as 14.7%.

For `COc1ccc(NC2CCCN(C(=O)c3ccc(CSC)o3)C2)cc1OC` (stereo not shown), the “hERG current change (%, negative = inhibition) at 1uM” value is listed as 5.39%.

Turning to `C=CCn1c(=NC(=O)C2CC2)sc2cc(NC(C)=O)ccc21`, the “hERG current change (%, negative = inhibition) at 1uM” value is listed as 7.85%.

`Cc1cc(F)ccc1S(=O)(=O)Nc1ccc(C(=O)N2CCCCCC2)cc1`: the “hERG current change (%, negative = inhibition) at 1uM” value was 6.18%.

As to `CC(C)(C)/C(Cn1cncn1)=N\OC(=O)Nc1ccc(Cl)cc1`, the “hERG current change (%, negative = inhibition) at 1uM” value worked out at 7.81%.

For the compound `O=C(CSc1ccc(Cl)cc1)NNC(=O)c1ccco1`, the “hERG current change (%, negative = inhibition) at 1uM” value is 6.69%.

As for `O=C(COC(=O)c1ccccc1Br)Nc1ccc(F)cc1`, the “hERG current change (%, negative = inhibition) at 1uM” value amounted to 16.6%.

`O=C(NC(N1CCOCC1)C(Cl)(Cl)Cl)c1cc([N+](=O)[O-])cc([N+](=O)[O-])c1` (stereo not shown): the “hERG current change (%, negative = inhibition) at 1uM” value is 5.15%.

With `COc1ccc(CNC(=O)CN(Cc2ccc(C)cc2)C(=O)c2csnn2)cc1`, the “hERG current change (%, negative = inhibition) at 1uM” value is -10.4%.

In the case of `COc1ccc(N2CCN(CCNC(=O)CCS(=O)(=O)c3cccc4nsnc34)CC2)cc1`, the “hERG current change (%, negative = inhibition) at 1uM” value was 4.59%.

With `COc1ccc(CCNC(=O)C(=O)NCC2OCCN2S(=O)(=O)c2ccccc2)cc1OC` (stereo not shown), the “hERG current change (%, negative = inhibition) at 1uM” value stood at 7.89%.

Turning to `Cc1nc2oc3ccc(F)cc3c(=O)c2cc1C(=O)NC(C)(C)C`, the “hERG current change (%, negative = inhibition) at 1uM” value amounted to 17%.

On to `CCN(CC)S(=O)(=O)c1ccc(C)c(NC(=O)COC(=O)CN2C(=O)NC(C)(C)C2=O)c1`, for which the “hERG current change (%, negative = inhibition) at 1uM” value came out at 2.92%.

For the compound `CCOC(=O)C1CCN(C(=O)C2CCN(S(=O)(=O)CC)CC2)CC1`, the “hERG current change (%, negative = inhibition) at 1uM” value amounted to 9.44%.

For `CCOc1cc(/C=N\n2nnnc2N)ccc1O`, the “hERG current change (%, negative = inhibition) at 1uM” value worked out at 10.1%.

Consider `CCCCN(CC)C(=O)c1ccc2c(c1)OCO2`, for which the “hERG current change (%, negative = inhibition) at 1uM” value was determined as 12.8%.

In the case of `O=C(NCc1ccc(Cl)cc1)c1ccc(Cn2cc(C(F)(F)F)ccc2=O)cc1`, the “hERG current change (%, negative = inhibition) at 1uM” value is reported as 13.1%.

For the compound `COc1ccc(O)c(/C=N/N=C2/C(=O)Nc3ccccc32)c1`, the “hERG current change (%, negative = inhibition) at 1uM” value is given as 0.714%.

For the compound `CC1(C)CC(=O)C2=C(C1)OC1=C(C(=O)CC(C)(C)C1)C2c1cc([N+](=O)[O-])cc([N+](=O)[O-])c1O`, the “hERG current change (%, negative = inhibition) at 1uM” value is reported as 13.6%.

In the case of `COc1ccc(-c2cc(-c3cc(C)ccc3O)[nH]n2)cc1`, the “hERG current change (%, negative = inhibition) at 1uM” value was found to be 13.3%.

In the case of `CCOc1ccccc1/C=N/Nc1ccccc1[N+](=O)[O-]`, the “hERG current change (%, negative = inhibition) at 1uM” value was 1.57%.
